In all, about 33,000 sequences were measured (“E-score (-0.5 to 0.5)”: median about -0.013, highest 2% from about 0.3 on). The list shows a part of the results.
target: T1, Msn1 (UniProt P22148); assay: PBM E-score (8-mer binding enrichment) (E-score (-0.5 to 0.5)); higher = stronger / more preferred TF binding; most listed sequences are background and not binding sites; details: protein concentration: 200 nM; construct: GST-full length
T1 sequence: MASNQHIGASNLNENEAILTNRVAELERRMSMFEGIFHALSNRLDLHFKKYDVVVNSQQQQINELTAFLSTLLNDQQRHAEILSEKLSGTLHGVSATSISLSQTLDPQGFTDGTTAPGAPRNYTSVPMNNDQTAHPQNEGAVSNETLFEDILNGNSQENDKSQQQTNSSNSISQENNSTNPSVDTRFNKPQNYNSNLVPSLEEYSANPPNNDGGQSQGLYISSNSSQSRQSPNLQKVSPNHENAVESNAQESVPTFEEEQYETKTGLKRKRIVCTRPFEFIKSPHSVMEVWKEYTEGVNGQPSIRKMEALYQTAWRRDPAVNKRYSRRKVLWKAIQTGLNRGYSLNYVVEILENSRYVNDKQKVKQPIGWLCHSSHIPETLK
Summary of the method: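 Yeast transcription factors, full-length or as DNA-binding domains, were expressed with a GST tag using PURExpress in vitro transcription/translation. At about 100-200 nM they were applied to universal all-10-mer Agilent arrays, double-stranded by primer extension on fresh or once-stripped slides. Fluorescent anti-GST detected bound protein, and masliner normalised the scans. E-scores for ungapped eight-base words, pooled with reverse complements, came from the Universal PBM Analysis Suite.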

Sequence	PBM E-score
TCAAGAAA	0.233
AGGAAAAA	0.0925
GCCGCAAA	0.0309
ACCCTAAA	-0.0528
TATTAGAA	0.248
GTATACTA	-0.228
ACCATGGG	-0.161
GCAGGTAC	-0.0895
CCCATGGG	0.0852
AGAAAATC	0.0346
ACGATTTC	0.0879
AGATCGAT	0.0907
CAGCGGGA	-0.0621
AGTCTCTG	-0.0413
ATCAAGTC	0.0654
ACACACCG	0.0297
CGCGAATA	0.103
CAGACGTC	0.0698
CAGAAATC	0.0396
ACCCACAG	-0.00035
CGATTTTA	0.0688
CCGTGAAC	0.0411
CCTGGTTC	-0.0645
CTATGTCC	0.461
AAGGTTCT	-0.103

Sequence	PBM E-score
ACGATCTC	-0.0225
AAGAAAAC	0.0667
ATATCGAA	0.0229
ATACGGAC	0.257
CTCAGGTA	-0.0235
ACGGCTCC	-0.0953
ACAACGAC	0.189
GAGGCCTC	-0.266
ATTAATAC	0.202
CCTAGGCA	0.0667
CAGTAAAC	-0.0138
ACGTTAGC	0.0261
ATGTACTG	0.247
AAGTCCTG	0.292
TAAGGTGA	-0.0308
ACGCAGGC	-0.278
CGAAGTAG	0.00116
ATATTAAA	0.344
CTTTACGA	-0.00672
CGGTACCA	-0.0349
TGTTAAAA	0.138
CCTGAAGC	-0.288
AAAAAGGA	0.00346
GGTGAGCA	-0.119
CATAGCAA	-0.0939

Sequence	PBM E-score
CTCGTAAG	0.0834
GCATGTAC	0.291
CGGCTGAG	-0.0823
CTCCCGAG	-0.0818
AGCTTATC	-0.00508
CGAGTGCA	0.0509
CCTTACTC	-0.101
GCGGTGGA	-0.0394
AGGCGGAT	-0.0793
CACTTCTC	-0.214
ATTGCGAC	0.199
GGGGACTA	-0.103
CTGGTACA	0.329
GAAAGGCC	-0.136
GGGAACCA	-0.173
CAAAACAG	0.184
ATAGCAGA	0.00241
AAGCCGCA	-0.0983
GCTCTCAA	-0.0581
AGCCAAGC	-0.129
GAAGTCGA	0.0876
AACTGTTG	0.0585
GATTCCCC	-0.281
ATGGTTTG	0.00789
GAACACCC	-0.165

Sequence	PBM E-score
GCGACAGA	0.144
CTACAAAA	0.0933
GCAGCTGA	-0.0734
AATCTTTG	0.0922
AGGTAAAA	-0.0519
TTGTACAA	0.337
GGGTGCCA	-0.202
TGCTCCCA	-0.191
AGCCACCG	-0.162
CTAGGTCC	-0.066
CTAGATAC	0.0746
AATCGGAG	0.122
AAAACTAT	0.0462
CAAGACAA	0.367
AGTAAAGA	0.00721
AATTTATC	0.272
ACCTGGAC	0.0631
CCACGCCA	-0.128
GCTGGTAC	0.0835
ACGCGGAC	0.17
CTTGTAGC	-0.121
GTCGTAGA	0.133
AGCCCCCT	-0.393
CGTGGTGA	-0.0149
CCACACAA	-0.00266

Sequence	PBM E-score
ACTAGCAA	0.0623
CATCCAGA	-0.205
AGCCCACT	-0.182
ACCCGATA	0.0622
CGGCGCGA	0.109
ACCGGATG	0.0328
AGGATGAT	-0.115
CGACGCGA	-0.0544
GGCATCCC	-0.167
GGCTCAGA	-0.122
ACGGTGCT	-0.25
CGGCAAGA	0.0609
CCGGGTCG	-0.141
GGCACTAA	0.0669
ACATCCAC	0.106
AGCCGTCC	-0.111
GGTGCTGA	-0.205
AAAAATAG	0.189
AATGGTAC	0.039
ACTTTGAT	-0.0153
GAGTGTTA	0.0458
AAAGTACA	0.272
TCTCGCAA	0.149
TCTGATCA	-0.074
GAGGGCTA	-0.211

Sequence	PBM E-score
GAGCATCA	-0.171
CAACCTTC	-0.109
AGTAAGCA	-0.0171
GCTTTTCC	-0.0951
CTATGCGC	-0.0539
AGCTCCTA	-0.165
GGAGAGAC	0.134
ATAAAGAT	0.0119
GCCCTACA	-0.04
ACTTAGAC	0.16
AGCTTGTA	-0.0143
ACTTAAAT	0.0531
ACTGTAAG	0.157
TCGTAGCA	0.101
GTGTTAAC	-0.0145
CGCCCACC	-0.0582
TATAGTGA	-0.0121
ACTTAGTC	-0.0101
CACGGAAC	0.132
CGTATAGA	0.207
AGAAAGGC	-0.18
TCTAGCAA	0.0862
CGTCCTTC	0.0919
GCATCTAA	0.12
ATGGGAAC	-0.00579

Sequence	PBM E-score
ATTCCGAA	0.121
CCCTATCG	-0.2
CCTACCAC	-0.163
ATAGCGGG	-0.192
CATCATAG	0.0295
GGACACAA	0.462
CAGTCGCG	0.0907
ATGCTCAA	-0.0471
CACGTTTC	-0.22
ATCACTGG	-0.0113
ATCTTGCG	-0.0566
ACGCAGTA	-0.0834
GGATGTCA	0.305
CTCTGCTA	-0.112
CCGTGAGA	-0.0625
GACGTAAA	0.137
GCCTGCGC	0.0271
ACACCGGA	-0.0117
GTAACCAA	0.0319
ACTTTCAA	0.171
GATAAGAC	0.0489
CAGTGAAC	0.052

From the supplement of paper PMC3334620
